Measured values from the supplement of paper PMC9446081.
Hit rate of the full screen: of about 39,000 compounds, about 220 (0.56%) showed activity. Some of the results follow.

tested on: Escherichia coli K-12 BW25113; assay: relative growth (OD600 normalised to plate interquartile mean) (fraction); higher = less growth inhibition, active = 0.2 or less; conditions: 50 µM; LB; incubation time: overnight (16-24 h)
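Also: static incubation at 37 °C against the wild-type strain, values averaged over two biological replicates.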

Row | Compound | relative growth
1 | O=C(O)C(O)C(O)C(=O)O.OCc1cccnc1 (configuration not stated) | inactive: 1.06
2 | COc1ccc(NC(=O)N(C)C[C@@H]2OCCCC[C@H](C)Oc3ccc(NC(=O)Nc4ccccc4)cc3C(=O)N([C@H](C)CO)C[C@@H]2C)cc1 | inactive: 1.06
3 | C[C@@H]1CN([C@@H](C)CO)C(=O)c2cccc(NC(=O)C3CCCCC3)c2O[C@H]1CN(C)C(=O)Nc1ccc(C(F)(F)F)cc1 | inactive: 0.91
4 | C[C@H](CO)N1C[C@H](C)[C@@H](CN(C)Cc2ccc(Cl)c(Cl)c2)OCCCC[C@H](C)Oc2ccc(NC(=O)NC3CCCCC3)cc2C1=O | inactive: 1.01
5 | CCNC(=O)c1cc2c(c(-c3cccc(-c4cccc(F)c4)c3)n1)[C@@H](CCO)N([S@](=O)C(C)(C)C)C2 | inactive: 1
6 | C=C1O[C@@](CO)(n2cnc3c(N)ncnc32)[C@H](O)[C@@H]1O | inactive: 1.01
7 | CCCC(=O)Nc1ccc2c(c1)C(=O)N(C)[C@@H]1CC[C@@H](CC(=O)NCCN3CCCCC3)O[C@@H]1CO2 | inactive: 1
8 | CC(C)NC(=O)N(C)C[C@H]1Oc2ccc(NC(=O)Cn3cnnn3)cc2CC(=O)N([C@H](C)CO)C[C@@H]1C | inactive: 1.04
9 | C[C@@H]1CCCCO[C@H](CN(C)Cc2ccc3c(c2)OCO3)[C@@H](C)CN([C@@H](C)CO)C(=O)c2cc(NS(=O)(=O)c3ccccc3)ccc2O1 | inactive: 0.953
10 | C[C@@H]1CCCCO[C@H](CN(C)C(=O)c2ccccc2)[C@@H](C)CN([C@H](C)CO)C(=O)c2cc(NC(=O)Nc3ccc(C(F)(F)F)cc3)ccc2O1 | inactive: 1.06
11 | C[C@H](CCC(=O)NCC(=O)NCCS(=O)(=O)O)[C@H]1CC[C@H]2[C@@H]3[C@H](O)C[C@@H]4C[C@H](O)CC[C@]4(C)[C@H]3C[C@H](O)[C@]12C | inactive: 1
12 | C[C@@H]1CCCCO[C@@H](CN(C)C(=O)Cc2ccccc2)[C@@H](C)CN([C@@H](C)CO)C(=O)c2cc(NC(=O)Nc3ccc4c(c3)OCO4)ccc2O1 | inactive: 1.01
13 | Cc1cc(NC(=O)C(=O)NC[C@H]2CCCO2)n(-c2nc(=O)cc(C)[nH]2)n1 | inactive: 1.01
14 | C[C@@H]1CN([C@@H](C)CO)S(=O)(=O)c2ccc(C#CC3(O)CCCC3)cc2O[C@H]1CN(C)C(=O)Cc1ccccc1 | inactive: 1
15 | C[C@@H]1CN([C@H](C)CO)C(=O)c2cc(NC(=O)CCN3CCOCC3)ccc2O[C@@H]1CN(C)C(=O)Nc1ccc(F)cc1 | inactive: 0.974
16 | C[C@H](CO)N1C[C@H](C)[C@H](CN(C)C(=O)NC2CCCCC2)OCCCC[C@H](C)Oc2ccc(NC(=O)NC3CCCCC3)cc2C1=O | inactive: 1.01
17 | C[C@H]1CN([C@@H](C)CO)C(=O)Cc2cc(NC(=O)Nc3cccc4ccccc34)ccc2O[C@H]1CN(C)S(=O)(=O)c1ccc(F)cc1 | inactive: 0.989
18 | OC[C@H]1O[C@H](O)[C@H](O)[C@@H](O)[C@@H]1O | inactive: 1.01
19 | COc1ccc(S(=O)(=O)Nc2ccc3c(c2)C(=O)N([C@H](C)CO)C[C@H](C)[C@@H](CN(C)C(=O)Nc2c(C)noc2C)O3)cc1 | inactive: 0.99

Row | Compound | relative growth
20 | COc1ccc([Si](C)(C)[C@H]2[C@H](CCO)O[C@@]3(C(=O)N(Cc4ccccc4)c4ccc(N5C(=O)c6ccccc6Oc6ccccc65)cc43)[C@@H]2C)cc1 | inactive: 1.06
21 | O=C(CN1CCOCC1)N[C@H]1CC[C@@H](CCNS(=O)(=O)c2ccccc2F)O[C@@H]1CO | inactive: 1.03
22 | C[C@H]1CCCCO[C@@H](CN(C)Cc2ccc3c(c2)OCO3)[C@@H](C)CN([C@@H](C)CO)C(=O)c2cc(NS(=O)(=O)c3ccc(F)cc3)ccc2O1 | inactive: 1.03
23 | C[C@@H]1CN([C@H](C)CO)C(=O)c2cc(NS(=O)(=O)c3cn(C)cn3)ccc2O[C@@H]1CN(C)S(=O)(=O)c1ccccc1 | inactive: 0.994
24 | O=S(=O)(O)NC1CCCCC1 | inactive: 1.07
25 | C[C@@H]1CN([C@@H](C)CO)C(=O)Cc2cc(NC(=O)CCCCCC(=O)Nc3ccccc3N)ccc2O[C@H]1CN(C)Cc1ccc(-c2ccccc2)cc1 | inactive: 0.977
26 | C[C@@H]1CCCCO[C@H](CN(C)Cc2ccc(C(F)(F)F)cc2)[C@@H](C)CN([C@H](C)CO)C(=O)c2cc(NC(=O)Nc3ccccc3)ccc2O1 | inactive: 0.997
27 | C[C@@H]1CCCCO[C@H](CN(C)Cc2ccncc2)[C@H](C)CN([C@H](C)CO)C(=O)c2cc(NC(=O)Nc3ccc(C(F)(F)F)cc3)ccc2O1 | inactive: 1.04
28 | CO[C@@H]1CN(C)C(=O)c2cc(NC(=O)Nc3ccccc3F)ccc2OC[C@H](C)N(Cc2ccccc2C(=O)O)C[C@@H]1C | inactive: 0.994
29 | C[C@H]1CN([C@@H](C)CO)C(=O)Cc2cc(NC(=O)Nc3ccc(C(F)(F)F)cc3)ccc2O[C@H]1CN(C)C(=O)Nc1ccc2c(c1)OCO2 | inactive: 1.03
30 | C[C@H]1CN([C@@H](C)CO)C(=O)c2cc(NS(=O)(=O)c3ccccc3)ccc2O[C@H]1CN(C)Cc1ccncc1 | inactive: 1
31 | O=C(C[C@H]1C[C@@H]2c3cc(NC(=O)C4CCOCC4)ccc3O[C@@H]2[C@@H](CO)O1)NCc1ccc(Cl)cc1 | inactive: 0.994
32 | N[C@H]1CCCN(Cc2cccs2)C1 | inactive: 1
33 | C[C@H]1CCCCO[C@H](CN(C)S(=O)(=O)c2cccs2)[C@@H](C)CN([C@@H](C)CO)C(=O)c2cc(NC(=O)Nc3ccccc3)ccc2O1 | inactive: 1.05
34 | C[C@H](CO)N1C[C@H](C)[C@H](CN(C)C(=O)Cc2cccnc2)Oc2cc(C#Cc3ccccc3F)ccc2S1(=O)=O | inactive: 0.995
35 | COCC(=O)Nc1ccc2c(c1)C(=O)N(C)C[C@H](OC)[C@H](C)CN(Cc1ccccc1OC)[C@@H](C)CO2 | inactive: 1.02
36 | C[C@@H]1CN([C@H](C)CO)C(=O)c2cc(NC(=O)CCC(F)(F)F)ccc2O[C@@H](C)CCCCO[C@H]1CN(C)Cc1ccc(C(=O)O)cc1 | inactive: 1.02
37 | C[C@@H]1CN([C@H](C)CO)C(=O)c2cccc(NC(=O)c3ccc(-c4nccs4)cc3)c2O[C@@H]1CN(C)C(=O)Nc1ccc(F)cc1 | inactive: 1.01
